Assay results: PubChem BioAssay AID504332 (National Center for Advancing Translational Sciences (NCATS), 2011)
Out of some 350,000 compounds screened, about 31,000 (8.9%) were called active. Inconclusive means that the source gave no clear call. Such entries were picked first, then a sample of the others. Calls come from the whole dose curve; as a rule, active = well fitted inhibition curve with a large enough effect; inconclusive = small, poorly fitted or top-dose-only effect; inactive = no such curve, though single readings can be large or run the other way. Potencies of inconclusive entries are doubtful fits and often do not repeat.

What follows are compounds tested against Histone-lysine N-methyltransferase EHMT2 (Homo sapiens) (UniProt Q96KQ7) (assay: qHTS Assay for Inhibitors of Histone Lysine Methyltransferase G9a). Conditions: G9a H3K9 monomethylation, AlphaScreen, 2 h; activity, negative = inhibition: at 59 µM (top of the series) unless noted.
Chain of UniProt Q96KQ7 (Q96KQ7 whole entry, looked up): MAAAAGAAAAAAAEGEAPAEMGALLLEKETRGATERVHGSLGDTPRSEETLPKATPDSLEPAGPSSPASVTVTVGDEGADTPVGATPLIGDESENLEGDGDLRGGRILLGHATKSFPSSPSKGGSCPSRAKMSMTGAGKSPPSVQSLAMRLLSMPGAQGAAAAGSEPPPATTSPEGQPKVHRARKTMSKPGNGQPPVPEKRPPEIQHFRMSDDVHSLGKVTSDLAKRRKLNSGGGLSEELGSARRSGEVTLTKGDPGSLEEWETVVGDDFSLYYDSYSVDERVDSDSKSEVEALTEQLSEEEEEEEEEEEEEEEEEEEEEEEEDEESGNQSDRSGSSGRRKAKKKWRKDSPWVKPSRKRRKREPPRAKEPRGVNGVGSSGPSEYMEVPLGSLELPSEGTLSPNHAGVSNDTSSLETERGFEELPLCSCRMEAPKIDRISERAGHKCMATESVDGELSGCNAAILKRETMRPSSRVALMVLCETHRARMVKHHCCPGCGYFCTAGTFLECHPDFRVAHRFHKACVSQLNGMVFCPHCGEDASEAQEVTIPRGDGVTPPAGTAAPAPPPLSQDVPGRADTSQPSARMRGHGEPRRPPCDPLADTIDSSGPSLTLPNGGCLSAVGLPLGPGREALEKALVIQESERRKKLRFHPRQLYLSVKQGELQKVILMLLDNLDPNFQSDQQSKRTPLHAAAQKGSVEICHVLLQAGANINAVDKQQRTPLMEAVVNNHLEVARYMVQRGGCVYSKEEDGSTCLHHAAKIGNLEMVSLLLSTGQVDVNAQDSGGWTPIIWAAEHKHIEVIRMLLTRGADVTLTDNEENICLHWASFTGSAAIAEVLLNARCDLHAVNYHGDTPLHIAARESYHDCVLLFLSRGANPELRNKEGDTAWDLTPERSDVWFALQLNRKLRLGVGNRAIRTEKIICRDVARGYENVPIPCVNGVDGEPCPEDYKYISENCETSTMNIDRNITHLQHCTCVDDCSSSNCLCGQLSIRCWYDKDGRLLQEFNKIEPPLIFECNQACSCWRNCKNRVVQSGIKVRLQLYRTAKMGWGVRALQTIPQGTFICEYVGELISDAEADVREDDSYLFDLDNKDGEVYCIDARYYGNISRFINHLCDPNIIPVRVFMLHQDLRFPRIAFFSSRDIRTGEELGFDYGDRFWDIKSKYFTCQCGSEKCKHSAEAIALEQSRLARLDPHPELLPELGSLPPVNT
Outline: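 Step 1: enzyme (final 20 nM) with compound, 15 min RT. Step 2: substrate peptide 500 nM and SAM 20 uM, 2 h RT. Step 3: anti-H3K9me1 antibody and AlphaScreen beads, 10 min, then plate read.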
% is set by controls: 0 for no effect and ±100 for the full control effect; potency is the fitted concentration of half-maximal effect; tags give direction and shape of the fitted curve.
Note: nearly all actives have a fitted effect of over 75% in size.

Q: `Cc1cccc(/C=N/n2c(C)nnc2C)c1` was tested. Which Potency did it give?
A: inconclusive: 79.4 µM [inhibitor, partial curve, poor fit]

Q: How did the “activity, negative = inhibition” value turn out when `COc1ccc(OCC(=O)NCCc2ccc(S(N)(=O)=O)cc2)cc1` was run?
A: inactive: -7.3%

Q: For `O=C(O)c1ccc(NCc2nc3ccccc3n2CCOc2ccccc2Cl)cc1`, which Potency is on record?
A: inactive

Q: Which Potency does the source give for `COc1cc(/C=C/C(=O)c2ccc(C)c([N+](=O)[O-])c2)cc(OC)c1O` here?
A: active: 44.7 µM

Q: `COc1ccc(C(=O)C2CCCN(Cc3ccc4nonc4c3)C2)c(C)c1` (stereo unspecified) was tested. Which “activity, negative = inhibition” value did it give?
A: inactive: 88.2% [at 102 µM]

Q: Which Potency does the source give for `CC/C(C)=N/NC(=S)NCc1ccco1` here?
A: inconclusive: 35.5 µM [inhibitor, single point]

Q: `COc1ccc(C(=O)O)cc1NC(=S)NC(=O)/C=C/c1ccc(C(C)C)cc1` was tested. Which Potency did it give?
A: inconclusive: 35.5 µM [inhibitor, partial curve, poor fit]

Q: How did the Potency turn out when `CCOCCCNC(=O)CNC(=S)N(Cc1ccccc1F)C1CCCCC1` was run?
A: inconclusive: 89.1 µM [inhibitor, partial curve, poor fit]

Q: For `Cc1ccc(S(=O)(=O)c2c[nH]c3ccc(Cl)cc3c2=O)cc1`, which Potency is on record?
A: inconclusive: 89.1 µM [inhibitor, single point]

Q: How did the Potency turn out when `CC(=O)OCC1(C)CN(c2ccccc2)NC1=O` (stereo unspecified) was run?
A: active: 14.1 µM

Q: For `O=C(COC(=O)c1cc([N+](=O)[O-])ccc1NCCO)c1ccccc1`, which Potency is on record?
A: inconclusive: 39.8 µM [inhibitor, partial curve, poor fit]

Q: Which Potency does the source give for `Cc1ccc(C)c(-n2c(-c3ccncc3)n[nH]c2=S)c1` here?
A: active: 15.8 µM

Q: For `COc1ccccc1N1CCN(CC(=O)c2c(N)n(C)c(=O)n(C)c2=O)CC1`, which “activity, negative = inhibition” value is on record?
A: inactive: 3.93% [at 102 µM]

Q: With `Cc1[nH]c2ccccc2c1N=Nc1ccc(F)cc1` as the compound, how does the Potency read?
A: active: 39.8 µM

Q: How did the Potency turn out when `O=[N+]([O-])CC(=Nc1ccc(F)cc1)N/N=C\c1oc(O)c2ccccc12` was run?
A: active: 44.7 µM

Q: How did the Potency turn out when `CCN(CC)c1cc(C)c2cc(NC(=O)/C=C/c3ccccc3Cl)ccc2n1` was run?
A: inconclusive: 28.2 µM [inhibitor, partial curve, poor fit]

Q: `N#CCC(=O)N/N=C/c1ccc(OC2CSC2)cc1` was tested. Which “activity, negative = inhibition” value did it give?
A: inactive: -1.21% [at 102 µM]

Q: With `COc1cc(C(c2nnnn2C(C)(C)C)N2CCN(c3nc4ccccc4s3)CC2)ccc1O` (stereo unspecified) as the compound, how does the Potency read?
A: active: 2.24 µM

Q: Which Potency does the source give for `COc1ccc(CNc2nc(-c3cccnc3)nn2C(C)=O)cc1` here?
A: inconclusive: 44.7 µM [inhibitor, partial curve, poor fit]

Q: For `CCOC(=O)N1CCC(NC(=O)c2cnn(-c3ccc(F)cc3)c2-n2cccc2)CC1`, which “activity, negative = inhibition” value is on record?
A: inactive: 5.52%

Q: With `COc1ccc(OCc2nn[nH]n2)cc1` as the compound, how does the Potency read?
A: inconclusive: 89.1 µM [inhibitor, single point]

Q: For `C=CCc1c(C)[nH]c2c(OC)cccc2c1=S`, which Potency is on record?
A: active: 3.98 µM

Q: With `O=C1C(NS(=O)(=O)c2cccs2)=C(N2CCN(c3cccc(C(F)(F)F)c3)CC2)C(=O)c2ccccc21` as the compound, how does the Potency read?
A: inconclusive: 0.891 µM [inhibitor, partial curve, poor fit]

Q: How did the Potency turn out when `COc1cc2c(c(OC)c1)C(c1ccncc1)CC(=O)N2` (stereo unspecified) was run?
A: inconclusive: 44.7 µM [inhibitor, partial curve]

Q: With `O=C(COc1ccc(Br)cc1)NNC(=S)NCc1ccccc1` as the compound, how does the Potency read?
A: inconclusive: 89.1 µM [inhibitor, single point]

Q: With `CCOc1ccc(N2C(=O)c3ccccc3C2=O)cc1` as the compound, how does the “activity, negative = inhibition” value read?
A: inactive: 12.3%

Q: Which Potency does the source give for `COc1ccc(NC(=S)N/C(=N/S(=O)(=O)c2ccc(C)cc2)c2ccccc2)cc1` here?
A: inconclusive: 44.7 µM [inhibitor, partial curve, poor fit]

Q: With `CCCCn1cc(S(=O)(=O)c2ccccc2)c(=O)c2cc(F)c(N3CCN(CCC)CC3)cc21` as the compound, how does the “activity, negative = inhibition” value read?
A: inactive: 0.414%

Q: Which Potency does the source give for `CC(=O)Nc1ccc(S(=O)(=O)Nc2nnc(C(C)C)s2)cc1` here?
A: active: 25.1 µM

Q: Which Potency does the source give for `CCOC(=O)C1Cn2c(nc3c(c2=O)C(C)(CC)Cc2ccccc2-3)S1` (stereo unspecified) here?
A: inconclusive: 1.12 µM [inhibitor, full curve, poor fit]

Q: With `Cc1cc(OCCCC(=O)NC2=NCCS2)ccc1Cl` as the compound, how does the Potency read?
A: inconclusive: 89.1 µM [inhibitor, partial curve, poor fit]

Q: How did the “activity, negative = inhibition” value turn out when `COc1ccc(NS(=O)(=O)c2ccc(N/N=C/c3ccc(N4CCOCC4)cc3)c([N+](=O)[O-])c2)cc1` was run?
A: inactive: -17.1%

Q: With `CCOc1ccc(N(C(C)C(=O)Nc2ccc(OC)cc2)S(C)(=O)=O)cc1` (stereo unspecified) as the compound, how does the Potency read?
A: inconclusive: 89.1 µM [inhibitor, single point]

Q: How did the Potency turn out when `CN1CCN(C(=S)NC(=O)c2ccc(C(C)(C)C)cc2)CC1` was run?
A: inconclusive: 39.8 µM [inhibitor, single point]

Q: Which “activity, negative = inhibition” value does the source give for `CCCCC1=CC2=C(c3ccco3)C(=O)C(C)(OC(=O)c3ccc(OC)cc3)C(=O)C2=CN1CCc1ccccn1` (stereo unspecified) here?
A: inactive: -41.1%

Q: Which activity, negative = inhibition does the source give for `Cc1cc(=O)n2nc(N3CCCC(C(=O)NC4CCC(C)CC4)C3)sc2n1` (stereo unspecified) here?
A: inactive: 1.62% [at 0.0925 µM]

Q: How did the Potency turn out when `COc1cc(OC)c(OC)cc1CN1CCSCC1` was run?
A: inconclusive: 39.8 µM [inhibitor, single point]

Q: `Cc1ccc(-n2nc(C)c3c(=O)[nH]c(C(F)(F)F)nc32)cc1` was tested. Which Potency did it give?
A: inconclusive: 7.94 µM [inhibitor, full curve, poor fit]

Q: `CC(=O)Nc1cccc(NC(=O)CSc2ncc(-c3ccc(Cl)cc3)n2Cc2ccco2)c1` was tested. Which Potency did it give?
A: active: 12.6 µM

Q: Which Potency does the source give for `Cc1ccc(Sc2ncccc2C(=O)O)cc1` here?
A: inconclusive: 3.55 µM [inhibitor, partial curve, poor fit]

Q: `NC(=O)CSc1nc2ccccc2nc1SCC(N)=O` was tested. Which Potency did it give?
A: inconclusive: 79.4 µM [inhibitor, single point]

Q: How did the “activity, negative = inhibition” value turn out when `COc1ccc(S(=O)(=O)c2c(O)c(C)cc(NS(=O)(=O)c3ccc(Cl)cc3)c2C(C)C)cc1` was run?
A: inactive: -34.6%

Q: For `O=C1c2ccccc2NC2(CCCCC2)N1c1ccc(O)cc1`, which “activity, negative = inhibition” value is on record?
A: inactive: 2.32%

Q: With `COCC(C)n1c(-c2ccc3c(c2)NC(=O)CO3)csc1=Nc1ccc(OC(F)F)cc1` (stereo unspecified) as the compound, how does the activity, negative = inhibition read?
A: inactive: -4.11% [at 12.7 µM]

Q: How did the Potency turn out when `COc1cc2cc(/C=C/C(=O)c3ccco3)c(Cl)nc2cc1OC` was run?
A: inconclusive: 8.91 µM [inhibitor, single point]

Q: How did the Potency turn out when `O=C(O)CC(NNC(=O)c1ccccc1)C(=O)Nc1ccc([N+](=O)[O-])cc1` (stereo unspecified) was run?
A: inconclusive: 44.7 µM [inhibitor, partial curve, poor fit]
